Consider 3 molecules from patent US20230131056A1 (Stanford University, published 2023).

The target of assay [1] is T1, mouse PD-L1 on parental MC38 cells (mouse, UniProt Q9EP73).
T1 construct: whole, on cells; the signal cannot be split between the two ligands; also called MC38 parental cells
The assay is described as follows: FACS on parental MC38 cells (express mouse PD-L1 and mouse PD-L2), anti-human IgG-Alexa 488 detection.

Assay [2] addresses T2, human PD-L2 on cells (Hep3B-hPDL2 cells; MC38-hPD-L2 cells) (human, UniProt Q9BQ51 20-273).
T2 construct: whole, on cells; also called Hep3B-OS8-hPD-L2; MC38-PD-L2
T2 sequence (looked up): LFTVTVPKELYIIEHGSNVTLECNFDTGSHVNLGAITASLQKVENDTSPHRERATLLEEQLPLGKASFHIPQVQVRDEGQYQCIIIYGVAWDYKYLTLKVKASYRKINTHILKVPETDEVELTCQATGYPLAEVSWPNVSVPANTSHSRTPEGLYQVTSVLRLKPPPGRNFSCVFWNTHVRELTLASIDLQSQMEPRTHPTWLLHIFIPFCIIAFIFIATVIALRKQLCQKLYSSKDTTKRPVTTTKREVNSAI
Put plainly: FACS binding on Hep3B-OS8-hPDL2 cells, detection with anti-human IgG-Alexa 488. Background: Flow cytometry measures light scatter and fluorescence of single cells or particles in a stream.

The target in assay [3] is T2, human PD-L2 on cells (Hep3B-hPDL2 …). Put plainly: FACS on Hep3b-hPDL2 cells (legend paragraph 66; paragraph 459 names MC38-PD-L2), anti-human IgG-Alexa 488 detection.

T1 sequence (Q9EP73 19-290): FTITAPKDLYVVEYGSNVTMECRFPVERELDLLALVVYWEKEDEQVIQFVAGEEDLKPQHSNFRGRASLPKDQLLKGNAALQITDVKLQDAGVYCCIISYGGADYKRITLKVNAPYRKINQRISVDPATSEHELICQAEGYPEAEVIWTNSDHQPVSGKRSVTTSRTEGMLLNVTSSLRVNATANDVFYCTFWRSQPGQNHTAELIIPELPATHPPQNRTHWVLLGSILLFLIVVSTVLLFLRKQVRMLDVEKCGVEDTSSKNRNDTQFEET

B1: wild type PD-1-Fc fusion protein (Fc fusion)
chain: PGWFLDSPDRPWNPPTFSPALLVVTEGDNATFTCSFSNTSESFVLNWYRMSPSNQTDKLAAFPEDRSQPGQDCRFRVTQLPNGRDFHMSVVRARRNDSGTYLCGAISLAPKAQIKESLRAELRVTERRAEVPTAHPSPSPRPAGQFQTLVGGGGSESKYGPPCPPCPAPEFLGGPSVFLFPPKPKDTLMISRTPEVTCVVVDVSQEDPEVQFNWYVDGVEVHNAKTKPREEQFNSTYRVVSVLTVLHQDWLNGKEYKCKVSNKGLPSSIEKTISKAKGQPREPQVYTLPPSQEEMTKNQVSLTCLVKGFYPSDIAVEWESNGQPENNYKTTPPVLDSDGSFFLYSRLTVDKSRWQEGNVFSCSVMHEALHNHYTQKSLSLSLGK
notes: also called WT PD-1-Fc fusion protein; parent Fc fusion protein
For the molecule B1, the binding result in assay [1] was “no binding (tested: about 10 uM)”. Moreover, the “EC50 (read off the curve)” value in assay [2] was about 4 nM; in assay [3] it was about 2 nM.

B2: sPD-1 variant version 2-Fc fusion protein (Fc fusion)
chain: PGWFLDSPDRPWNPPTFSPALLVVTEGDNATFTCSFSNTSEGFVLNWYRMSPSNQTDKLAAFPEDRGQLGQDCRFRVTQLPNGRDFHMSVVRARRNDSGTYLCSAIVLAPKIQIKESLRVELRVTERRAEVPTAHPSPSPRPAGQFQTLVGGGGS[human IgG4 Fc with S228P (EU numbers) not printed]
notes: also called sPD-1 mutant version 2; sPD-1 mutant V2
As for B2, the “EC50 (read off the curve)” value in assay [1] was about 0.2 nM.

B3: sPD-1 variant version 1-Fc fusion protein (Fc fusion)
chain: PGWFLDSPDRPWNPPTFSPALLVVTEGDNATFTCSFSNTSEGFVLNWYRMSPSNQTDKLAAFPEDRGQLGQDCRFRVTQLPNGRDFHMSVVRARRSDSGTYLCSAIVLAPKIQIKESLRVELRVTERRAEVPTAHPSPSPRPAGQFQTLVGGGGS[human IgG4 Fc with S228P (EU numbers) not printed]
notes: also called sPD-1 mutant version 1; sPD-1 mutant V1
For the molecule B3, the “EC50 (read off the curve)” value in assay [1] is about 0.2 nM.

As usually defined, the EC50 (read off the curve) is the midpoint of the concentration-response curve.
